Experimental data reported in PMC10726135.
The other results are listed elsewhere or left out. At the low end of the ranking, values are background and their order means little. Measured with an extract: partners may take part in the binding.

molecular target: T1, HNF4alpha8 (COS-7 nuclear extract) (UniProt P41235-5); assay: protein-binding microarray; settings: COS-7 nuclear extract on double-stranded Agilent 4x180k PBM; binding buffer, salt, pH and temperature not given; high values mean tight binding; double strand, one strand shown; sequences stand for … in …GCCTAGGGAGATTAGAGTATCGGTCGA
T1 sequence: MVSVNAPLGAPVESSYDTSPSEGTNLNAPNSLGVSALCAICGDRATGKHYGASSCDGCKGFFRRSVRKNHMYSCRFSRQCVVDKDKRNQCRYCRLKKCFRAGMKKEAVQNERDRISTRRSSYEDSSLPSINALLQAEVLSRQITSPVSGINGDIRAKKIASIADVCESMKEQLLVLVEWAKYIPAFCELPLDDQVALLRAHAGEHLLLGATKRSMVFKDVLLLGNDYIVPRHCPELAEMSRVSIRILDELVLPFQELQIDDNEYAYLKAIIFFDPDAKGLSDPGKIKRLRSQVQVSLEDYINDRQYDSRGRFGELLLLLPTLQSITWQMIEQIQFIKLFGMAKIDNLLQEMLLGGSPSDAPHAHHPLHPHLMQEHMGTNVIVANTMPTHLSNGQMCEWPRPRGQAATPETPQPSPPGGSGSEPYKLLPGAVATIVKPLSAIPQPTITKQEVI

| Sequence | binding signal (log2 normalized intensity) |
| --- | --- |
| GGATAATGTGCCCTTTGTACCTGGGGCAAA | 5.83 |
| AGGAAAAAAATAGGAGACTGTCTTAGGAAA | -1.24 |
| GCCACGGTCAGCAATGTGGACTTTGTCCTG | 10.2 |
| AGGAATGAGACATGAATCCATCCCACCTCA | 0.0459 |
| CAGAAGGTCAGAGATCAGGTCTCTTTTATG | 1.22 |
| ATCACAAGACATGAAGATGCAGAACAAGGT | -1.24 |
| CAGGGAAATATGTTCCACCCAGGGTGGCAG | -1.46 |
| TTGCTCATGACTATTCTCTAAACTCTGGGC | -0.561 |
| GGAAGTGGGGAAGAAGTGTTCCCCTGTCAC | 1.54 |
| TCTGGGGTATAAAGGTCAGGGATAGAACTG | 3.91 |
| TTCAGATACAAGCTAATCTGACCAAGTGAA | -0.729 |
| CATGTTTACTTTTGCAAGGTTTGTTCTTAT | 1.87 |
| GGGTTCCAAGACCAAGCAAGCCAGTCAGAA | -1.32 |
| ATAGTTCAGCCATCAGGTAACATATTGTCC | 1.18 |
| TGTGTGTTCTGGACTTCTCTGCCCTCTTCC | 3.22 |
| CCCCCAAGGCATGGGACCTTTGCCCTTCTT | 6.71 |
| GTTATGAGTCTGTTGTCTAACATTTTTGAC | 0.787 |
| CTTCAAGTCAGTTGCATGCAACCTTTGTCC | 6.32 |
| GCTGAGGAATTTGGACTTCAGCCCAGGCTG | 4.62 |
| TCTGTTTCCAGAAATCTGACCTCTGCCTCG | 4.55 |
| AGCCTCTATGTCAGGCCATTTCACCTTTGC | 4.57 |
| CCCCGCCCCGCGTCCGTGCACCCTTCCTCT | 3.83 |
| GTGATAATGGATGGCAAATAAAGGAACTCT | -1.38 |
| ACAACCTTTGGCCGTGCATGCTTGGACTCT | 5.22 |
| TTTATCCTTTTTTGAAGGTTAAAGTCCATT | 7.82 |

| Sequence | binding signal (log2 normalized intensity) |
| --- | --- |
| CTGACTCACGGCAGCTTGTACCCTTCTTTC | 2.29 |
| ACACTCAGGTCTTTCTGGAGATAACAGTGT | 1.11 |
| TCATGATTTAGTAAGTTCAAGAAGACCTTT | 4.29 |
| GGGGGAGGGTAAATATAGTTAAAGCCAGCT | -1.28 |
| CCCAGACACACCTGCAATGGAAAATTCCAT | -1.27 |
| ACGGAAGGCCGGGCCTCAAGGGAATCTGCT | -1.46 |
| AGGTCATTGTGCTGACTGGTTGGAATTCCA | 1.2 |
| TAATATTTGCAAATGACTTTGAGAGTAAGT | 0.692 |
| TCCAAGGTTCAGCTCCATCTGAACTCTTCA | 2.5 |
| GCTACATGATACAGCCTTTTGCCCCCAGGC | 4.86 |
| GCACTGAGGAATGGAAGGACCTTGGACTGA | 5.29 |
| CACACACAGACATAAACACAGACACACATG | -1.25 |
| CAGAGTTCACTTTCCTCTCATTTCTGAACA | 0.832 |
| AAAAGGACACAGGGTCTGTTTTCAAACACA | -1.32 |
| GCAAATACAGGTGAATTTCAGTGCCCTTTG | 3.36 |
| CATTCTTTTCCCCATACCAGGCAGTTTCCC | 2.26 |
| CCTCCAGGCCCCAGCCACGCCCTCTAACCC | 3.33 |
| TTCACCAATTTCCCCCATGAAATTGAGATA | 3.25 |
| CAAGTTTGAACTGCACAGGCCTACTTATAG | -1.24 |
| GAACAGGTTCAGATAAGACAAGCTCTGTTT | -1.25 |
| CTCCTCCCCCCGCCGCATCTACCAGCGTAA | 4.22 |
| TGGCTGCATCCTTCTCCTCCCCTCCCCCCA | 5.92 |
| GTGCACTTTGACCCTGCTGTAGTGTGTAAG | 5.69 |
| AGCAGATGCTTCCCAGAAAGAATGAGCGGG | -1.29 |
| ACAGGCTTAACATAAAGGGTTGAAGAAAGA | -1.2 |

| Sequence | binding signal (log2 normalized intensity) |
| --- | --- |
| ACCTCACAAAGGGGGCCTGAAGGGTGTTGT | -1.07 |
| CTGAGGTGCCCTTACATTTTGCTCTTTGTA | 2.81 |
| ACTCTCTCAACACTGGCTTCTCTGGCCTAG | -1.29 |
| TGGAGGCGGTGCCATTCACAGGAATGTTGG | -1.32 |
| GGACGTGTGTGTTCTGGACTTCTCTGCCCT | 3.25 |
| AGATAAGAGGTGTCATGGCAATAAACAAAA | -1.39 |
| AAGTTAAAACAGCAGAGCACGATGAATAGG | -1.24 |
| GTGATCAATCAGCAGCAAAGTCCTGGAAGA | 0.053 |
| ATATTTGCATAATGGAGCAAAGGTCATCCT | 7.22 |
| AAATCTTCAACTGGAGGATAAAGTTCAAGT | 3.09 |
| TGCCCTTCTTGTTAACCTCCTATGATCTTT | 3.08 |
| GGCCTTTCCTGACCCCTCCTCCCCCCGCCG | 6.08 |
| TACATTGAACTTTGAACACCTCTTCTTTCT | 5.51 |
| CTTGGACTGAAGACTGGAACTGGGCTGACT | -1.21 |
| CTCGGCATCATGCCCTTTGGCCCCCAGAGC | 7.18 |
| TTCCTGGATTGTGAAACACAGGACTTGATC | 1.44 |
| CATTCCAGGGTGAAATTCAACAGAACTGTT | -1.41 |
| TCTCCTGGAAAGGTTCCACTCTGACTAACT | -1.24 |
| ACGCACTCGCCTCTCCTGTTCCGGTTGGGT | 0.512 |
| ACAAGGGCATGTAAAGGAGATTATCTAGAC | -1.47 |
| GAGACTGCTCGGCATCCCTGCCGTGGCTGG | -1.33 |
| GACCAAAGATCACAGTGAAGGTGAAGAGTG | 0.967 |
| GTGTTTGCCCAGCTTGAATCACTCACTGAC | -1.28 |
| CCACGGAATCCCAGTTCTGATACACTCGCC | -1.39 |
| TCCACTCCGGGCGATCCGGGCTCCGGGCGC | -1.28 |

| Sequence | binding signal (log2 normalized intensity) |
| --- | --- |
| CAAAGTAAACAAAGATACTCTCATCACTTA | -1.31 |
| CTGCAATGACAATAAATTATACCAACTATT | -1.26 |
| ATCCTTACACAGCAGCTTTAGTCAGAGATT | -1.29 |
| AATTGACCTTTGATCACTCATGGGCAAGAT | 6.41 |
| GAAAGCTGGCTTGGAAAAAGCAGGCAACCA | -1.3 |
| GCCAGAACTCAGGGTCTGGTTCCAAAGTCT | 4.43 |
| CAAAAGCTGAGTCCCTGCTTGATAAGACTG | -0.775 |
| AGTTAGGTTCTGGCACCTGAAGCTGCCCTT | 2.29 |
| TGAACCCTTGGGGCTTTTGCAATTTAAACT | 0.505 |
| ATCACACAACTTTCATTGAACTGCTGGGGG | -0.529 |
| TCGCACCTAAGGGCACCCTTCCTGCTTCCA | -1.22 |
| GGCGGAGAGCTCCGGGGTCACGCGCGTGTG | 1.79 |
| TACCCTGGGAATGGAGAGAGAGAGAATAGC | -1.35 |
| CAAACACAGATCAGATATGAGATTCCCAGA | -1.34 |
| CAGCGCCTCCCGGTCACTACAACAACGGCG | -1.26 |
| TATGTTTCAGCCAAGAGCGGAAAGAAAGGC | -1.19 |
| CTCTTTTAGTAACTGACTTTAACTTCAAAG | -1.21 |
| CCTTGGCTGTGTGACTCACCTTTGCTCTGA | 4.48 |
| GGGCTCAAGCGATCCTCCCACTTCAGCCTC | -1.36 |
| GGGCACTGATAACCTGCATTTGAAAGAGGT | -1.29 |
| TCTCCAAACCCATATTCCTATCACCATATC | 0.0991 |
| TCATACCTCTTACCAGATAGATGCTGCTCT | -1.46 |
| TCCTACTTTATCTAAGTAAACTAGTGATGT | 1.17 |
| AGGCAGGACATCAAAGAACAAGTATCCTGG | -1.19 |
| TCTGTACAGCTCTTGTGCTCTGGACATACC | 0.639 |

| Sequence | binding signal (log2 normalized intensity) |
| --- | --- |
| TCTGTTTCTCTGTCTCTCTGCACACACAGA | -1.25 |
| TAATATTTTTGACTTACCATTTGCTGATAA | -0.712 |
| CTTCCCTCCACTATTGTCCTATGACCCTGC | 4.86 |
| GCAGCTCAAGGGTGTTCCTGAGTAAATCTC | -1.27 |
| TTTGCTGAAGACAGGCCAGGGTGATCAAAC | 0.843 |
| AGGAATGTACATAATCTGGACCCAAACGAA | 2.95 |
| TTGCCCCCCTGGGCTCAAGCGATCCTCCCA | 4.82 |
| CAGCATAGTCCTGCCACATTTTTATCCTTT | 1.72 |
| ACCTTTGACCTGGTACTATGACCTTTCACC | 7.83 |
| GCTTTGATGTGTGTATCAATGGCCCCAGTG | 2.12 |
| ACATTCGTTAACATCAGCTGAGCAGAGAGG | -1.38 |
| AGGAACTTACGAAGATAAATCAGAAGAAAA | -1.27 |
| CCATAAATACACAATCTGAAGTCCCCTGTG | 2.2 |
| AACAGTCTGCACATTTATTGGACTAGGCAC | 1.45 |
| ATATAAGCTATTACTTGATTTAATACGATA | -0.0423 |
| TTTACGAAGTGTTTGTCAAGCTCAATGCAA | -1.23 |
| ATAACCACCATTAGACTCTGCCCTCCTTAA | 3.3 |
| GCTCCCTCCCCTCCTCCCTTGCTCACCCCA | 5.89 |
| CCAGAGTTCAGGTAGAGGGATTCCCTGGGA | -0.833 |
| GTTTTGAGATAGGGTCTTGCTTTGTCACCC | 2 |
| GGTCAAGGACTGTTCAGTCCCAGTATGTGC | -0.367 |
| CCCCAAAAACTTGGACTCTATAGCCTATGC | 2.66 |
| TAAGTACCCACTATAGATTGTGAGATAAGT | -0.806 |
| CTGAAGACAGTCTCCAAGGTTATTATATTG | 1.49 |
| AGGTCGCCGGGAAAACCCGGAGCGGAGCAT | -1.2 |

| Sequence | binding signal (log2 normalized intensity) |
| --- | --- |
| AGGCCCATCTTCTTATCTGAGGTTTGACTT | 0.989 |
| GCAGACCCTATTGGGCTAGCCGCTCCTCCC | -1.24 |
| CTGGCCCAGCCTGGCCTCTAGAGTGGTTGC | -0.874 |
| AATGATGATGACTTTTGACCCCAGGGGAAA | 6.38 |
| GAATCCTCTCTTGCTCAGGTGAGGCCAGTC | -0.894 |
| AGAGCAGAATCTACAAGGACCAGATTCTTA | -1.29 |
| TAGGGCCACTTTGTCCTTCACTTGTAGGAG | 0.768 |
| TAGTATTGAGTTTGCTCTGCTACTAACTGC | -0.294 |
| ACACAGAGATCTGATCAAAGGTCATTGGTA | 6.68 |
| TTGTCAGTGAGGAATGTGCAAACGGCCCAG | -0.961 |
| GAGCTGCTGGAACAGGCTGGGACACGCCTG | -1.34 |
| ATGTGACCTTTTGGACCACAGAGTGACCTG | 5.66 |
| CTGATAAATCCCGAGCCAGAGCCAAAGGGC | 0.829 |
| TTCTTCTGGTTCTGCAAGGCAACTGACCTT | 4.13 |
| CCTGATGACAACTGAATGTGACCTTTTGGA | 6.26 |
| TCTGAGTAGGAAAGACTTGCTCATTGATGA | -1.27 |
| AGTTTGACTCCAAAGGGCTGGAGACTGAGT | -1.24 |
| ATAAAGGAAGCTGGGCACAAATTGGAGAGC | -1.37 |
| TGATCCAGGGCAAAGGTCATAATTTGATCC | 6.94 |
| CCTCCCCTCCCCCCAGTTCCCTGGGTCGCC | 4.79 |
